This is an account of results in the supplement of paper PMC10322689.

Counter-ions that a name gives are not always drawn. ± gives the standard deviation of the averaged measurements. The list shows a part of the results. Single values are uncertain, as repeats are few or missing.

The assay deals with mouse mesenchymal chondrosarcoma cells (HEY1-NCOA2). Description: XTT absorbance relative to DMSO control (cell viability) (fraction of DMSO control); higher = more viable cells / less growth inhibition. In general terms: Tetrazolium assays rely on reduction of a dye to a coloured formazan, in cell work by metabolically active cells.
As to `COc1c(C=O)c(O)cc2c1C(=O)c1ccccc1C2=O` [Damnacanthal], the XTT absorbance came to 0.885 ± 0.021.

Regarding `CC(C)C[C@@H](N)[C@H](O)C(=O)N[C@H](C(=O)N[C@H](C(=O)N[C@@H](CC(=O)O)C(=O)O)C(C)C)C(C)C` [Amastatin], the XTT absorbance came out at 0.995. In turn, `CCN(CC)CC(=O)Nc1c(C)cccc1C` [Lidocaine] yielded an XTT absorbance of 0.913. The molecule `O=c1c(-c2ccc(O)cc2)coc2cc(O)cc(O)c12` [Genistein] displayed an XTT absorbance of 0.885. With `CC[C@]1(O)C[C@@H]2CN(CCc3c([nH]c4ccccc34)[C@@](C(=O)OC)(c3cc4c(cc3OC)N(C)[C@H]3[C@@](O)(C(=O)OC)[C@H](OC(C)=O)[C@]5(CC)C=CCN6CC[C@]43[C@@H]65)C2)C1` [Vinblastine sulfate], the XTT absorbance is 0.426.

`N#C/C(=C(/N)Sc1ccccc1N)c1cccc(C(O)c2ccncc2)c1` (configuration not stated) [MEK inhibitor I] had an XTT absorbance of 0.892.

In the case of `CCn1cc(C(=O)O)c(=O)c2ccc(C)nc21` [Nalidixic acid], the XTT absorbance came out at 0.902. For `CCCCOc1cc(CC2CNC(=O)N2)ccc1OC` (configuration not stated) the value was 0.911. For `CC(C)C[C@@H](C=O)NC(=O)[C@H](CC(C)C)NC(=O)[C@H](CC(C)C)NC(=O)OCc1ccccc1` the value was 0.133; for `Nc1[nH]nc2nnc(-c3c(-c4ccccc4)nn4ccccc34)cc12` [ERK inhibitor II], 0.914; for `COc1ccc(COc2ccc(Cc3cnc(N)nc3N)cc2OC)cc1` [cFMS Receptor Tyrosine Kinase Inhibitor], 0.952.

In turn, `O=c1cc(-c2ccccc2)oc2cc(O)c(O)c(O)c12` [Baicalein] registered an XTT absorbance of 0.927.
